Reference: PubChem BioAssay AID1460 (National Center for Advancing Translational Sciences (NCATS), 2008)
Hit rate of the full screen: of about 270,000 compounds, about 5,800 (2.1%) were called active. The shares of active, inactive and inconclusive entries below differ from those in the screen. Calls follow the shape of the dose curve; as a rule, active = well fitted inhibition curve with a large enough effect; inconclusive = small, poorly fitted or top-dose-only effect; inactive = flat fitted curve, though single readings scatter. A potency beside an inconclusive call is a rough fit, not a confirmed value.

Biological target: Microtubule-associated protein tau (Homo sapiens) (UniProt P10636)
Assay: qHTS for Inhibitors of Tau Fibril Formation, Thioflavin T Binding; also: nearly all actives have a fitted effect of over 55% in size
Details: recombinant tau K18 P301L, heparin-induced fibrillization, ThT fluorescence; series mostly up to 57.4 µM
Procedure, shortened: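 ThT emission at 510 nm, taken 1 hr after adding 30 uM dye, quantifies aggregates formed when 20 uM heparin acts on human tau K18 P301L for 6 hr at 37 C.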
% is scaled to controls: 0 for no effect and ±100 for the full control effect; potency is read from the fitted curve at half-maximal effect; tags tell the direction and shape of the fitted curve.

Sequence of UniProt P10636 (P10636 whole entry, looked up): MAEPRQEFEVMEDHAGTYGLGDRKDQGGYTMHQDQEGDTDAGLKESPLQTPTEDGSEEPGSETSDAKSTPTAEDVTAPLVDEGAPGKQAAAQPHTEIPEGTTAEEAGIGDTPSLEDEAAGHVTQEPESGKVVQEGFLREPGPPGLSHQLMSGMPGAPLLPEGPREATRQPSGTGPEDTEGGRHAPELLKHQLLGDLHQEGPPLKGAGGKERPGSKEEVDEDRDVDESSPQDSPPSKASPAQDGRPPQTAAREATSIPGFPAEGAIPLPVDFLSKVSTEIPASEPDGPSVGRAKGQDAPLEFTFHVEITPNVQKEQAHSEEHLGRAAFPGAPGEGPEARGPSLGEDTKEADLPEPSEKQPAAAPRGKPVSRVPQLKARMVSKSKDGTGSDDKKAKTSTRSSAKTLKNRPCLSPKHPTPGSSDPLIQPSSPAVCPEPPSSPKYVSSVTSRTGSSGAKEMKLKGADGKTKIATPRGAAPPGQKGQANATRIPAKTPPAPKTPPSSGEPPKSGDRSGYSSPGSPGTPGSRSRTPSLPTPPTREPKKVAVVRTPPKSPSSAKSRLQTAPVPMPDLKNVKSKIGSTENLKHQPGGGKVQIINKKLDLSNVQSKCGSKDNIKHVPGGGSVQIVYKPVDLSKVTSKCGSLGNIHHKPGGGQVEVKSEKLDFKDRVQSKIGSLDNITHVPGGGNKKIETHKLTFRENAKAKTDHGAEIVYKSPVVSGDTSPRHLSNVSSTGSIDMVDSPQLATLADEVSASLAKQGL

| Compound | Potency | activity, negative = inhibition |
| --- | --- | --- |
| CCN(CC)C(=O)c1c(-c2ccccc2)c(-c2ccccc2)nn(CC)c1=O | inactive |  |
| COc1cccc(OC)c1C(=O)Oc1ccc2c(c1)O/C(=C\c1ccncc1)C2=O | inconclusive: 20 µM [inhibitor, partial curve] |  |
| Cc1cc(C)c2cc(C)c3nnc(SCC(=O)NCc4ccc5c(c4)OCO5)n3c2c1 | inconclusive: 31.6 µM [inhibitor, partial curve] |  |
| O=C(Nc1ccc(Cl)c(Cl)c1)Nc1nccs1 | inconclusive: 35.5 µM [activator, single point] |  |
| Nc1c2c(nc3ccc(Br)cc13)N(Cc1ccccc1)CC2 | inconclusive: 31.6 µM [inhibitor, partial curve] |  |
| O=C(N/N=C/C=C/c1ccc2c(c1)OCO2)c1ccc([N+](=O)[O-])cc1 | inconclusive: 0.355 µM [inhibitor, full curve] |  |
| C/C(N)=C(/C#N)C(=O)CSc1nnc(Nc2cccc(C)c2C)s1 | inactive |  |
| Nc1cnn(Cc2ccc(F)cc2)c1 | inconclusive: 14.1 µM [inhibitor, partial curve, poor fit] |  |
| O=C(O)CCCNc1c(C(=O)Nc2ccc(Cl)cc2)cc([N+](=O)[O-])cc1[N+](=O)[O-] | inconclusive: 17.8 µM [inhibitor, partial curve] |  |
| COc1ccc(N=c2scc(-c3ccc(S(=O)(=O)N4CCOCC4)cc3)n2CCCO)cc1 | inconclusive: 20 µM [inhibitor, single point] |  |
| O=C(Nc1ccccc1)Nc1cccc(C(F)(F)F)c1 | inactive |  |
| COc1ccc(N2CCN(C(=O)CSc3nnc(-c4ccc5[nH]c(C)c(C)c5c4)o3)CC2)cc1 | inconclusive: 2.82 µM [inhibitor, full curve] |  |
| CCOC(=O)N1CCC2(CC1)C(C#N)=C(N)Oc1n[nH]c(C)c12 | inactive |  |
| CC1CN(C(=O)N(C)C)CCN1C(=O)N(C)C (stereo not given) | inactive |  |
| CCCOc1ccc(-c2csc(N)n2)cc1[N+](=O)[O-] | inconclusive: 11.2 µM [inhibitor, partial curve] |  |
| Cc1nc(NC2CCCCC2)c2nc(-c3ccccc3)n(CCN3CCCC3)c2n1 | inactive |  |
| COc1ccc(Cn2ccc3nc(C)c(C(=O)Nc4cccc(SC)c4)cc3c2=O)cc1 | inconclusive: 3.55 µM [activator, single point] |  |
| Oc1c(C(Nc2ccccn2)c2ccccc2F)ccc2cccnc12 (stereo not given) | inconclusive: 12.6 µM [inhibitor, partial curve, poor fit] |  |
| O=C(O)c1ccccc1Sc1c([N+](=O)[O-])cc(C(F)(F)F)cc1[N+](=O)[O-] | inconclusive: 10 µM [inhibitor, partial curve] |  |
| CC(/C=C/c1ccc(Cl)o1)=C\C(=O)O | inconclusive: 25.1 µM [inhibitor, partial curve] |  |
| O=C(O)c1ccccc1C(=O)Nc1ccc(Br)c2cccnc12 | inactive |  |
| CCOC(=O)C1CCCN(C(=O)c2cc3ccccc3oc2=O)C1 (stereo not given) | inactive |  |
| COc1ccccc1C(=O)NC(=S)Nc1ccc(N2CCOCC2)c(Cl)c1 | inconclusive: 2.24 µM [inhibitor, full curve] |  |
| COc1cccc(-c2nccc(NCc3cccc(C)c3)n2)c1 | inconclusive: 31.6 µM [inhibitor, partial curve] |  |

| Compound | Potency | activity, negative = inhibition |
| --- | --- | --- |
| O=C(C1CCCN1S(=O)(=O)c1ccc(Br)cc1)N1CCOCC1 (stereo not given) | inconclusive: 0.708 µM [activator, partial curve] |  |
| O=C(N/N=C/c1cc(Br)c(Br)o1)c1ccc2c(c1)OCCO2 | inconclusive: 4.47 µM [inhibitor, partial curve] |  |
| Cc1cccc(N2CCN(C3=C(c4ccccc4)C(=O)c4ccccc43)CC2)c1C | inconclusive: 7.94 µM [inhibitor, partial curve] |  |
| COCCNC(=O)c1ccccc1NS(=O)(=O)c1ccc(C)c([N+](=O)[O-])c1 | inactive |  |
| COc1ccc(C(Nc2ccccn2)c2ccc3ccc(C)nc3c2O)cc1C (stereo not given) | active: 15.8 µM |  |
| CCCN(CCC)CCCNC(=O)c1cc2c(=O)n(C)c3ccccc3c2s1 | inactive |  |
| Cc1ccc2sc(NNC(=O)c3cc(-c4cccs4)nc4ccccc34)nc2c1C | inconclusive: 5.01 µM [inhibitor, partial curve] |  |
| O=C(C1CCCO1)N1CCN(c2c3c(nc4cc(-c5ccc(F)cc5)nn24)CCC3)CC1 (stereo not given) | inactive |  |
| CC1CCN(CC(=O)Nc2ccccc2Sc2ccccc2)CC1 | inconclusive: 39.8 µM [inhibitor, single point] |  |
| CC(=O)Nc1ccc2c(c1)nc(CN1CCCC1)n2C | inactive |  |
| CCOc1c(Br)cc(CNc2ccc3c(c2)OCCO3)cc1OC | inconclusive: 39.8 µM [inhibitor, single point] |  |
| O=[N+]([O-])c1ccc(O)c(/C=N/n2cnc3ccccc32)c1 | inconclusive: 12.6 µM [inhibitor, partial curve] |  |
| COc1ccc(OCC(=O)NCCC2=CCCCC2)c([N+](=O)[O-])c1 | inconclusive: 39.8 µM [inhibitor, single point] |  |
| O=C(CSc1c2c(nc3ccccc13)CCC2)N1CCCC1 | inconclusive: 22.4 µM [inhibitor, single point] |  |
| O=C(COc1ccc(Cl)cc1Cl)NN1C(=O)/C(=C\c2ccc(Cl)cc2)SC1=S | inconclusive: 2.24 µM [inhibitor, partial curve] |  |
| CC(=O)c1ccc(N2CCN(C(=O)c3ccco3)CC2)c(F)c1 | inconclusive: 4.47 µM [inhibitor, partial curve] |  |
| Cc1c(Cl)cccc1Nc1nc(N)nc(CN2CCCCCC2)n1 | inconclusive: 25.1 µM [inhibitor, partial curve] |  |
| CCOC(=O)c1sc(Nc2nc3cc4c(cc3s2)OCO4)cc1C | inconclusive: 3.55 µM [inhibitor, full curve] |  |
| CC(=O)N1CC=C2C(C#N)=C(N)C(C#N)(C#N)[C@H](c3ccoc3)[C@H]2C1 | inconclusive: 28.2 µM [inhibitor, partial curve] |  |
| Cc1ccc(C)c(-c2cc(C(=O)NNC(=S)NCC(C)C)c3ccccc3n2)c1 | inactive |  |
| CCCNC(=O)OC[C@H]1O[C@@H](CCO/N=C2/C[C@@H](O)[C@@H](O)[C@@H]3[C@@H]4C(=O)N(CC)C(=O)[C@H]4CC[C@@H]23)C=C[C@@H]1Oc1ccc(OC)cc1 |  | inactive: -9.92% [at 11.5 µM] |
| O=c1oc(-c2ccc([N+](=O)[O-])cc2)nc2ccccc12 | inconclusive: 7.08 µM [inhibitor, partial curve] |  |
| Cc1noc(NS(=O)(=O)c2ccc(N/C=C\C(=O)c3ccc4c(c3)OCO4)cc2)c1C | inconclusive: 17.8 µM [inhibitor, partial curve] |  |
| Cc1ccc(C2CC(=O)NC(SCC(=O)OCc3ccccc3)=C2C#N)o1 (stereo not given) | inconclusive: 25.1 µM [inhibitor, partial curve] |  |

| Compound | Potency | activity, negative = inhibition |
| --- | --- | --- |
| O=C(CSc1nc2ccccc2c(=O)n1CCCO)NCc1ccccc1 | inactive |  |
| Cc1ccc(-c2csc(NC(=O)CSc3nc(C)cc(=O)[nH]3)n2)cc1 | inconclusive: 28.2 µM [inhibitor, partial curve, poor fit] |  |
| Cc1nn(C)c(C)c1N=Cc1c(O)ccc2ccccc12 | inconclusive: 15.8 µM [inhibitor, partial curve] |  |
| Cn1c(=NC(=O)CCl)sc2ccccc21 | inconclusive: 22.4 µM [inhibitor, single point] |  |
| COC(=O)[C@@H](N)Cc1ccc(O)cc1 | inactive |  |
| Cc1ccc(Cn2c(CCNC(=O)c3cccc(C)c3)nc3ccccc32)cc1 | inconclusive: 39.8 µM [inhibitor, single point] |  |
| Cc1c2c(c(C)n1C)C(C(=O)NC1CCCCC1)N(Cc1ccccc1)C2=O (stereo not given) | inconclusive: 39.8 µM [inhibitor, single point] |  |
| Cc1ccc(/C=N/NC(=O)CCCOc2ccc(Cl)cc2Cl)cc1 | inactive |  |
| C=C1c2ccccc2O[C@H](C(=O)OCC)[C@@H]1CC(C)(C)c1ccccc1 | inconclusive: 0.0631 µM [inhibitor, full curve] |  |
| CCc1c(C)sc(NC(=O)C2CC2)c1C(=O)OC(C)C | inconclusive: 22.4 µM [inhibitor, partial curve, poor fit] |  |
| O=C(CN1CCOCC1)NNc1c2ccccc2nc2ccccc12 | inconclusive: 35.5 µM [inhibitor, single point] |  |
| CC1=CC(=O)C(C(C)C)=C/C1=N/OS(=O)(=O)c1ccccc1 | active: 14.1 µM |  |
| Cc1cccc(-c2noc(-c3cc(C(C)C)[nH]n3)n2)c1 | inconclusive: 28.2 µM [inhibitor, single point] |  |
| O=[n+]1c2c(n([O-])c3cc(Br)ccc31)CCC2 | inconclusive: 31.6 µM [inhibitor, partial curve] |  |
| CC(C)(C)NCCOCCOc1ccccc1-c1ccccc1 | inactive |  |
| Cc1ccc(CCNS(=O)(=O)c2ccc3c(c2)C(C(C)C)C(=O)N3)cc1 (stereo not given) | inactive |  |
| Cc1c(Cl)cccc1NC(=S)N=Nc1c(O)n(CN2CCOCC2)c2ccccc12 | inconclusive: 11.2 µM [inhibitor, partial curve] |  |
| CCCc1ccc(C(=O)CCC(=O)O)cc1 | inactive |  |
| COc1ccc(N2C(=O)CC(NCCNc3ccc([N+](=O)[O-])cn3)C2=O)cc1 (stereo not given) | inactive |  |
| COc1cccc(Cn2c(=O)n(CC3CCC(C(=O)NC(C)C)CC3)c(=O)c3sccc32)c1 (stereo not given) | inactive |  |
| COCCCNC(=O)CN(c1cc(Cl)cc(Cl)c1)S(C)(=O)=O | inactive |  |
| Cc1ccc(Nc2ccccc2N)cc1 | inconclusive: 11.2 µM [inhibitor, partial curve] |  |
